Assay results published in PubChem BioAssay AID463173 (ICCB-Longwood Screening Facility, Harvard Medical School, 2010).
The campaign covered roughly 52,000 compounds. About 1,700 (3.3%) were called active. Cut-off read from the data, not from the text of the source: active = survival mostly below about 52% (no sharp cut-off); inactive = mostly above about 56%. Some of the results follow.

The compounds below were run on Wild type (assay: S. aureus survival, RN4220 and DeltatarO strains – OD600, teichoic acid synthesis inhibitors, primary screen (AID 463173)). Conditions: S. aureus RN4220 wild type/DeltatarO growth, OD600, 18 h, active compounds read low, screened at 18.75 µg/mL (by protocol).
In the case of CC1(C)Cc2[nH]c(=S)c(C#N)cc2CO1, the survival was inactive: 67%. COc1ccc(OC)c(C2c3c(-c4ccc(Br)cc4)n[nH]c3C(=O)N2c2ccc(Cl)cc2)c1 (configuration not stated) was tested, and the survival was inactive: 77%. With CCOc1ccc(NC(=O)c2ccc3c(SCC(=O)O)c4c(nc3c2)CCC4)cc1 the survival was inactive: 80%. For CCOC(=O)c1c(Nc2cccc(C(=O)OC)c2)nnc(-c2ccccc2)c1-c1ccccc1, the survival was inactive: 19%. CCOc1ccccc1-c1noc(CSc2nnc(-c3ccccc3)n2-c2cccc(C)c2)n1 was tested, and the survival was inactive: 91%. With COc1ccc(Nc2cc(C(=O)NCCCN(C)Cc3ccccc3)c3ccccc3n2)c(OC)c1 the survival was inactive: 87%. For CCOc1ccc(S(=O)(=O)NCC(c2ccco2)S(=O)(=O)c2ccc(C)cc2)cc1 (configuration not stated), the survival was inactive: 47%. With CC(C)(Cc1ccc(O)cc1)NC(=O)c1ccccc1 the survival was inactive: 98%. With COc1ccccc1C(=O)Nc1ccc(NC(=O)c2cccs2)cc1 the survival was inactive: 74%. In the case of CCOc1ccccc1NC(=O)COC(=O)c1cn(CC)c2nc(C)ccc2c1=O, the survival was inactive: 63%. For COc1cc(-c2nc3ccccn3c2Nc2ccccc2C)ccc1O, the survival was inactive: 65%. For O=C(Nc1cccc(C(F)(F)F)c1)N1CCC(CN2CCCCCC2)CC1, the survival was inactive: 51%. With COc1ccccc1NC(=O)N1CCN(c2nnc(C)c3c(C)n(-c4ccc(Cl)cc4)nc23)CC1 the survival was inactive: 83%. CC(C)N(C(=O)CSc1nnc(-c2cccs2)o1)C(C)C was tested, and the survival was inactive: 116%. COc1ccc(CC(=O)NCCc2sc(-c3ccc(Cl)cc3)nc2C)cc1OC was tested, and the survival was inactive: 74%. In the case of CC1CCc2c(sc(NC(=O)Cn3nnc(-c4ccc(C(F)(F)F)cc4)n3)c2C#N)C1 (configuration not stated), the survival was inactive: 77%. COC(=O)CCC(=O)Nc1cccc2ccccc12 was tested, and the survival was inactive: 101%. With COc1ccccc1CNS(=O)(=O)c1ccc(-c2cc(C(F)(F)F)on2)s1 the survival was inactive: 73%. OP(Oc1ccccc1)(Oc1ccccc1)=P(O)(Oc1ccccc1)Oc1ccccc1 was tested, and the survival was inactive: 103%. In the case of CC1CCN(c2cc3c(cc2F)c(=O)c(S(=O)(=O)c2cccc(Cl)c2)cn3Cc2ccccc2)CC1, the survival was inactive: 59%. With CCn1nc(C(C)C(=O)O)c2ccccc2c1=O (configuration not stated) the survival was inactive: 109%. With Cn1nc(-c2ccccc2F)c2cc(C(=O)NCc3ccc(Cl)cc3)sc21 the survival was inactive: 107%. COc1ccc(C2=C(C(C)=O)Sc3nnc(-c4ccc(C)cc4)n3N2C(C)=O)cc1OC was tested, and the survival was inactive: 76%. For CC(=O)N(CC(C)C)c1nnc(-c2cccnc2)s1, the survival was inactive: 102%. With COc1ccccc1CNc1ccc(-c2nc(-c3ccccn3)no2)cc1[N+](=O)[O-] the survival was inactive: 77%. In the case of O=C(NCc1ccc(F)cc1)c1c2c(nc3ccccc13)C(=O)N(C1CCCCC1)C2, the survival was inactive: 99%. With COc1ccc(OC)c(NC(=O)CCNS(=O)(=O)c2cccc3nsnc23)c1 the survival was inactive: 66%. In the case of Cc1cccc(CCNC(=O)C2CCC(CNS(=O)(=O)c3c(C)cc(C)cc3C)CC2)c1 (configuration not stated), the survival was inactive: 59%. With O=C(Cc1ccc(NC(=O)N2CCCCc3ccccc32)cc1)NCc1ccccc1Br the survival was inactive: 78%. For Clc1nc(Cl)nc(OCCCOc2nc(Cl)nc(Cl)n2)n1, the survival was inactive: 107%. For COc1cc(Cl)c(C)cc1NC(=O)Cn1cc(S(=O)(=O)N2CCN(c3ccccc3F)CC2)c2ccccc2c1=O, the survival was inactive: 68%. CCc1ccc(NC(=O)CSc2nc3n[nH]c(C)c3c(=N)n2-c2ccc(C)cc2)cc1 was tested, and the survival was inactive: 159%. With O=C(CCC1N=C2c3ccccc3N=C(SCC(=O)Nc3ccccc3F)N2C1=O)NCc1ccco1 (configuration not stated) the survival was inactive: 82%. In the case of Nc1ccc2nc(C(F)(F)F)[nH]c2c1, the survival was inactive: 106%. Cc1cccc(NS(=O)(=O)c2ccc3[nH]c(=O)[nH]c3c2)c1C was tested, and the survival was inactive: 71%. Cc1cccc(N2CCN(CC(=O)NCc3cccs3)CC2)c1C was tested, and the survival was inactive: 115%. In the case of N#Cc1ccc(OC(=O)c2cc(-c3ccc(Cl)cc3)on2)cc1, the survival was inactive: 94%. With Cc1ccc(NC(=O)CN(C)S(=O)(=O)c2ccc3c(c2)n(C)c(=O)c(=O)n3C)c(C)c1 the survival was inactive: 77%. CCc1ccc(CN2C(=O)c3ccccc3C2C(=O)NC2CCCCCC2)cc1 (configuration not stated) was tested, and the survival was inactive: 88%. In the case of CC(C)(C)C(=O)Nc1ccc(-c2nc3ccccc3s2)cc1, the survival was inactive: 87%. In the case of CCOc1ccc(-c2c(C)nn3c(C)c(C(=O)NCc4cccc(OC)c4)cnc23)cc1OCC, the survival was inactive: 73%. In the case of CCC1C(=O)NN=C1C (configuration not stated), the survival was inactive: 90%. With CONc1nc(NC(C)(C)C)nc(OCC#N)n1 the survival was inactive: 102%. For COc1ccc(-n2ncc(C(=O)N3CCN(Cc4ccccc4)CC3)c2C2CCN(C(=O)OC(C)(C)C)CC2)cc1, the survival was inactive: 57%. In the case of CCOc1cc(C(=O)N(Cc2nc(-c3ccc(C)cc3)no2)C(C)C)cc(OCC)c1OCC, the survival was active: 15%. For COc1cc(NC(=O)c2ccco2)c(OC)cc1NC(=O)CCC(=O)NC1CCN(Cc2ccccc2)CC1, the survival was inactive: 114%. With CCc1cnc2c(c1SCc1c(F)cccc1Cl)c(=O)n(C)c(=O)n2C the survival was inactive: 72%. With CCc1ccccc1Nc1nn2c(=O)c3ccc(C(=O)NC4CCC(C)CC4)cc3nc2s1 (configuration not stated) the survival was inactive: 80%. For CC(=O)Nc1ccc(S(=O)(=O)NCc2ccc3c(c2)CCN3C(C)=O)cc1, the survival was inactive: 113%. Cc1oc(-c2ccccc2)nc1Cn1c(SCc2cccc(C(F)(F)F)c2)nc2cccnc21 was tested, and the survival was inactive: 83%. COc1ccc(CCNC(=O)CCCn2c(=O)c3ccccc3n(CC(=O)Nc3cccc(C)c3)c2=O)cc1OC was tested, and the survival was inactive: 92%. With CCOC(=O)c1c(NC(=O)c2ccc(S(=O)(=O)N3CCC(C)CC3)cc2)sc2c1CCN(C(C)C)C2 the survival was inactive: 92%. For NC(=O)Cn1nnc(-c2ccccc2N)n1, the survival was inactive: 104%. Cc1nn(C(=O)COc2ccc(Cl)cc2)c(C)c1Sc1ccccc1 was tested, and the survival was inactive: 88%. With CCOC(=O)c1ccc(NC(=O)CC2C(=O)N(c3ccccc3)C(=O)N2Cc2ccc(C)cc2)cc1 (configuration not stated) the survival was inactive: 58%. In the case of O=C(NCC1CCCO1)C12CC3CC(CC(C3)C1)C2 (configuration not stated), the survival was inactive: 103%. COC(=O)c1ccc(Cl)cc1NC(=O)N1CC2CCCN2c2ccccc21 (configuration not stated) was tested, and the survival was inactive: 82%.
